Laboratory results taken from paper PMC2783927 (Nature immunology, 2009).

T1: IL-17RC extracellular domain, soluble (without BirA ligase tag) (UniProt Q8NAC3 21-538)
T1 sequence: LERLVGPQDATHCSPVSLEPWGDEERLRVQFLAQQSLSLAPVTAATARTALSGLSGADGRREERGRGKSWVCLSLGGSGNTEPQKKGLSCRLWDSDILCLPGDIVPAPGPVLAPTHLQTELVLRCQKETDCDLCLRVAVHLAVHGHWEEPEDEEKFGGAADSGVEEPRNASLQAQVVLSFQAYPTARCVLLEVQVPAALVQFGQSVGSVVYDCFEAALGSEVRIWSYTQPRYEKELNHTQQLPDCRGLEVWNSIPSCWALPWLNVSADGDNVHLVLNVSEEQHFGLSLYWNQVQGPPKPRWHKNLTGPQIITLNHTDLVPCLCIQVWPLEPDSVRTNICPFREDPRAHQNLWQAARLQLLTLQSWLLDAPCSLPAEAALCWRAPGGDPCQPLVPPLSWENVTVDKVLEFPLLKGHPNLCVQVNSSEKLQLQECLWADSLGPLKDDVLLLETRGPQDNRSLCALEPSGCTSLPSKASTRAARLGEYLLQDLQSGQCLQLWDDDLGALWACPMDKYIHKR

B1: IL-17RA extracellular domain, soluble (without BirA ligase tag) (receptor)
chain: not shown
B2: IL-17RA-IL-17A complex, pre-assembled on the SPR chip (complex)
chain 1: not shown
chain 2: not shown
modifications: biotin on the C-terminal BirA ligase tag

What was measured:
[1] = target: B2; test: SPR
[2] = target: T1, IL-17RC extracellular domain, soluble …; test: SPR

| Binder | Kd [1] [nM] | Kd [2] [nM] |
| --- | --- | --- |
| B1 | 3100 | – |
| B2 | – | 174 |
